{
  "source": "PubChem BioAssay AID686979",
  "about": "(National Center for Advancing Translational Sciences (NCATS), 2013)",
  "note": "About 50,000 (12%) of roughly 420,000 compounds were called active. Inconclusive results, whose numbers are uncertain, are shown with a selection of clear calls. The call rests on the fitted dose curve; in most records, active means well fitted inhibition curve with a large enough effect; inconclusive means small, poorly fitted or top-dose-only effect; inactive means flat fitted curve, though single readings scatter. No potency is given beside an inconclusive call; the fits are too rough. Where a SMILES comes first, the peptide text is derived from it. The star is where a group is joined. Cbz = O=C(OCc1ccccc1)*; CH2Cl = ClC*",
  "data": [
    {"assay": "qHTS for Inhibitors of human tyrosyl-DNA phosphodiesterase 1 (TDP1): qHTS in cells in presence of CPT; further: nearly all actives have a fitted effect of over 55% in size; further: potency means the concentration at half of the fitted maximal effect; tags describe the fitted curve by direction and shape; on activity change, negative = growth inhibition: on the % scale 0 is the no-effect control and ±100 the full control effect", "details": "chicken DT40 Tdp1-/-;hTDP1 cells + 20 nM CPT, ATP luminescence, 48 h; activity change, negative = growth inhibition: at 46.2 µM (top of the series) unless noted", "summary_of_the_method": "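Chicken DT40 Tdp1-/- cells stably complemented with human TDP1 were seeded at 400 cells/well in medium containing 20 nM camptothecin, exposed to pin-transferred compounds, and grown at 37 °C for at least 48 hr. Viability was read as ATP luminescence.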", "values": [
      {"smiles": "O=C(Nc1ccc2c(c1)nc1n2CCN(Cc2ccccc2)C1)c1cccs1", "Potency": "inconclusive [inhibitor, single point]"},
      {"smiles": "Cc1cccc(CSc2ccc3nnc(-c4ccccn4)n3n2)c1", "Potency": "inconclusive [inhibitor, single point]"},
      {"smiles": "Cc1ccccc1NCC(=O)N/N=C/C(Br)=C/c1ccccc1", "Potency": "active: 5.17 µM"},
      {"smiles": "COc1ccc(C(=O)c2nc3c(n2O)CCCC3)cc1OC", "activity change, negative = growth inhibition": "inactive: 9.21%"},
      {"smiles": "CCO[C@H]1OC(C(=O)N2CCCCCCC2)=C[C@@H](c2coc3ccccc3c2=O)[C@@H]1CCCO", "Potency": "inconclusive [inhibitor, single point]"},
      {"smiles": "N#CC(C(=O)C1CCCCC1)c1nc2ccccc2[nH]1", "note": "(centres undefined)", "Potency": "inconclusive [inhibitor, partial curve]"},
      {"smiles": "CC(C)c1cc(C(C)C)c(S(=O)(=O)N2CCNCC2)c(C(C)C)c1", "Potency": "inconclusive [inhibitor, single point]"},
      {"smiles": "NC(=O)NC(CCC(=O)O)C(=O)O", "note": "(centres undefined)", "activity change, negative = growth inhibition": "inactive: -4.25%"},
      {"smiles": "CCOC(=O)C1(CCCc2ccccc2)CCN(C(=O)CCCn2cncn2)CC1", "Potency": "inconclusive [inhibitor, single point]"},
      {"smiles": "O=C1CN(C(=O)c2ccc(Br)o2)C(c2ccc(F)cc2)c2cc(Cl)ccc2N1", "note": "(centres undefined)", "Potency": "active: 16.4 µM"},
      {"smiles": "CCc1ccc(CN(C(=O)c2cc(=O)c3ccc(C)cc3o2)C2CCS(=O)(=O)C2)cc1", "note": "(centres undefined)", "Potency": "active: 16.4 µM"},
      {"smiles": "CC(C)CC(NC(=O)OCc1ccccc1)C(=O)NC(Cc1ccccc1)C(=O)CCl", "note": "(stereo not drawn) (Cbz-Leu-Phe-CH2Cl; configuration not given here)", "Potency": "active: 4.61 µM"},
      {"smiles": "COC(=O)c1ccc(C(=O)NN)cc1", "activity change, negative = growth inhibition": "inactive: 0.729%"},
      {"smiles": "O=C(Cn1c(C(=O)N2CCN(C3CCCC3)CC2)cc2sccc21)c1ccccc1", "Potency": "active: 18.4 µM"},
      {"smiles": "O=C(CCc1nc2ccccc2c(=O)[nH]1)OCc1ccc(-c2ccccc2)cc1", "activity change, negative = growth inhibition": "inconclusive: -31.9% [inhibitor]"},
      {"smiles": "CCOc1ccccc1C=C1CCc2ccccc2C1=O", "Potency": "inconclusive [inhibitor, single point]"},
      {"smiles": "Cc1ccc(NC(=O)c2ncn(CCCNCCCN(C)C)n2)cc1C", "Potency": "inconclusive [inhibitor, single point]"},
      {"smiles": "COc1cc(OC)cc(-c2sc3ccc(OC)cc3c2C#CC2(N)CCCCC2)c1", "Potency": "inconclusive [inhibitor, single point]"},
      {"smiles": "COc1ccc(/C(N)=N/O)c(OC)c1", "activity change, negative = growth inhibition": "inactive: -5.26%"},
      {"smiles": "CCOC(=O)C1CCCN(C(=O)Cc2ccc(C)cc2)C1", "note": "(centres undefined)", "Potency": "inconclusive [inhibitor, single point]"},
      {"smiles": "C=C(C)Cn1c(SCC(=O)N/N=C/c2ccccc2)nc2ccccc2c1=O", "Potency": "inconclusive [inhibitor, single point]"},
      {"smiles": "COc1ccc(N2CCN(C(=O)c3cccc(NS(=O)(=O)c4cccc(F)c4)c3)CC2)cc1", "activity change, negative = growth inhibition": "inactive: -6.62%"},
      {"smiles": "COc1cc(N/N=C(\\C)c2ccc(O)c(C)c2)nc(-c2ccccc2)n1", "Potency": "inconclusive [inhibitor, single point]"},
      {"smiles": "CCN(CC)CCNC(=O)c1ccc(-n2c(-c3ccccc3)cc3c2CCCC3)cc1", "Potency": "inconclusive [inhibitor, single point]"},
      {"smiles": "COc1cccc(CNC(=O)CCCn2nc(C)c3c(C)n(-c4ccc(C)cc4)nc3c2=O)c1OC", "Potency": "active: 10.3 µM"},
      {"smiles": "Cc1cc(C)c(NC(=O)c2ccc(CNS(=O)(=O)c3cc(C(F)(F)F)ccc3Cl)cc2)c(C)c1", "Potency": "active: 20.6 µM"},
      {"smiles": "O=[N+]([O-])c1ccc(NCc2ccc3c(c2)OCO3)cc1", "activity change, negative = growth inhibition": "inactive: -1.57%"},
      {"smiles": "NNC(=O)COc1cccc(C(F)(F)F)c1", "activity change, negative = growth inhibition": "inactive: -1.71%"},
      {"smiles": "CC(C)Cn1c(=O)c2sccc2n2c(CCCC(=O)NC3CCCCC3)nnc12", "Potency": "inconclusive [inhibitor, partial curve]"},
      {"smiles": "CCOC(=O)c1c(-c2ccc(-c3ccccc3)cc2)csc1NC(=O)CCN1CCOCC1", "Potency": "active: 18.4 µM"},
      {"smiles": "COc1ccc(N(C)C(=O)c2cc(S(=O)(=O)N3CCc4ccccc43)cn2C)c(OC)c1", "Potency": "inconclusive [inhibitor, single point]"},
      {"smiles": "Cc1cccc(-c2nc(C(N)=O)c3c(n2)n(-c2ccc4c(c2)OCO4)c(=O)n3C)c1", "Potency": "inconclusive [inhibitor, full curve]"},
      {"smiles": "COc1ccc2oc(C(=O)N3CCN(C(=O)c4ccco4)CC3)c(C)c2c1", "Potency": "inconclusive [inhibitor, single point]"},
      {"smiles": "CCc1ccc(C2CC(=O)Oc3c2c(=O)n(C)c2ccccc32)cc1", "note": "(centres undefined)", "activity change, negative = growth inhibition": "inactive: 2%"},
      {"smiles": "O=C(CSc1nc2cc(S(=O)(=O)N3CCOCC3)ccc2o1)NC1CCCc2ccccc21", "note": "(centres undefined)", "Potency": "inconclusive [inhibitor, single point]"},
      {"smiles": "CCCCc1ccc(NC(=O)C2(C)Cc3ccccc3C(=O)O2)cc1", "note": "(centres undefined)", "Potency": "inconclusive [inhibitor, partial curve]"},
      {"smiles": "CCCCNC(=O)C1(C)CCC(=O)N1CCCn1ccnc1", "note": "(centres undefined)", "activity change, negative = growth inhibition": "inactive: 4.65%"},
      {"smiles": "O=C(CSc1nc2ccccc2[nH]1)N=Nc1c(O)[nH]c2ccccc12", "activity change, negative = growth inhibition": "inconclusive: -32.8% [inhibitor]"},
      {"smiles": "Cc1ccnc2ccc([N+](=O)[O-])cc12", "Potency": "inconclusive [inhibitor, single point]"},
      {"smiles": "Cc1ccc(C2C(C#N)=C(N)OC3=C2C(=O)CC(C)(C)C3)s1", "note": "(centres undefined)", "activity change, negative = growth inhibition": "inactive: -11.4%"},
      {"smiles": "CN(Cc1ccon1)C(=O)CCc1nnc(Cc2ccc(-c3ccccc3)cc2)o1", "Potency": "inconclusive [inhibitor, single point]"},
      {"smiles": "CC(C)C(O)c1ccc2c(c1)CN(C(=O)c1ccccc1-n1cccn1)CCO2", "note": "(centres undefined)", "activity change, negative = growth inhibition": "inactive: -5.64%"},
      {"smiles": "O=C(Nc1cccc(-c2ccc(N3CCOCC3)nn2)c1)c1ccc([N+](=O)[O-])cc1", "Potency": "inconclusive [inhibitor, partial curve, poor fit]"},
      {"smiles": "COc1ccccc1N1CCN(C(=O)C2CCCN(S(=O)(=O)c3ccc(C)cc3)C2)CC1", "note": "(centres undefined)", "Potency": "active: 16.4 µM"},
      {"smiles": "COc1ccc(/C=C/C(=O)NCC(=O)N/N=C/c2cc(Br)ccc2OCc2ccccc2)cc1", "Potency": "inconclusive [inhibitor, partial curve, poor fit]"},
      {"smiles": "Cc1ccc(S(=O)(=O)Nc2ccc(N(C)C)cc2)cc1", "activity change, negative = growth inhibition": "inactive: -24.4%"},
      {"smiles": "COc1ccc(CNC(=O)Cn2nc(C)c3c(C)n(-c4ccccc4)nc3c2=O)cc1OC", "activity change, negative = growth inhibition": "inactive: -18.4%"},
      {"smiles": "FC(F)(F)c1ccc(-c2noc(CN3CCCN(C4CCCCC4)CC3)n2)cc1", "Potency": "active: 20.6 µM"},
      {"smiles": "O=C(CN(c1ccc(Cl)c(Cl)c1)S(=O)(=O)c1ccccc1)N1CCc2ccccc2C1", "Potency": "inconclusive [inhibitor, single point]"},
      {"smiles": "CS(=O)(=O)N(CC(=O)Nc1ccc(S(=O)(=O)N2CCOCC2)cc1)c1ccccc1Br", "activity change, negative = growth inhibition": "inactive: -16.1%"},
      {"smiles": "CCCCCCCC(=O)N/N=C/c1ccco1", "activity change, negative = growth inhibition": "inactive: -5.61%"},
      {"smiles": "Cc1ccc(CN(Cc2ccco2)c2cnc(S(C)(=O)=O)nc2C(=O)Nc2ccccc2Br)o1", "Potency": "active: 9.2 µM"},
      {"smiles": "CCCCC(CC)CN=C(N)NC(N)=NCCCCCCN=C(N)NC(N)=NCC(CC)CCCC", "note": "(centres undefined)", "Potency": "active: 13 µM"},
      {"smiles": "O=C(/C=C/c1cccs1)Nc1ccc([N+](=O)[O-])cc1", "Potency": "inconclusive [inhibitor, single point]"},
      {"smiles": "COc1ccc(Cc2nnc(SC(C)C(=O)Nc3ccc(C(N)=O)cc3)o2)cc1", "note": "(centres undefined)", "activity change, negative = growth inhibition": "inactive: 3.02%"},
      {"smiles": "Cc1csc(NC(=O)C2COc3ccccc3O2)n1", "note": "(centres undefined)", "Potency": "inconclusive [inhibitor, partial curve]"},
      {"smiles": "CC(=O)N1CC2(CC(c3ccccc3C(F)(F)F)=NO2)CN1c1ccc(Cl)cc1", "note": "(centres undefined)", "Potency": "inconclusive [inhibitor, single point]"},
      {"smiles": "Cc1cc(C)cc(NC(=O)Cn2cc(C(=O)c3ccccc3)c(=O)c3ccc(C)nc32)c1", "activity change, negative = growth inhibition": "inactive: 3.11%"},
      {"smiles": "Cc1ccccc1C(=O)NNC(=O)C(=O)Nc1cccc(Cl)c1C", "Potency": "inconclusive [inhibitor, partial curve, poor fit]"},
      {"smiles": "Cc1ccc(Cl)cc1NC(=O)CCS(=O)(=O)c1ccc2c(c1)n(C)c(=O)c(=O)n2C", "Potency": "inactive"},
      {"smiles": "O=C(Nc1cc(S(=O)(=O)N2CCOCC2)ccc1-n1cncn1)c1ccc(Cl)cc1", "activity change, negative = growth inhibition": "inconclusive: -30.4% [inhibitor]"},
      {"smiles": "COc1cc(CNCCc2c[nH]c3ccccc23)cc(Cl)c1OCC(N)=O", "Potency": "inconclusive [inhibitor, partial curve, poor fit]"},
      {"smiles": "CCOC(=O)CSc1nc2ccc(NC(=O)COc3ccccc3C)cc2s1", "activity change, negative = growth inhibition": "inactive: -14.2%"},
      {"smiles": "Cc1cc2nnc(SC(C)C#N)n2c2ccccc12", "note": "(centres undefined)", "Potency": "inconclusive [inhibitor, single point]"},
      {"smiles": "COC(=O)CN1C(=O)C(O)(CC(=O)c2ccc(F)cc2)c2ccccc21", "note": "(centres undefined)", "Potency": "inconclusive [inhibitor, single point]"},
      {"smiles": "NCc1csc(NC(=O)Nc2cccc(C(F)(F)F)c2)n1", "Potency": "active: 16.4 µM"},
      {"smiles": "CC(C)OC(=O)c1cc(C(=O)c2cc(F)ccc2O)coc1=N", "activity change, negative = growth inhibition": "inactive: -21.9%"},
      {"smiles": "CCOc1cnn(-c2ccccc2)c(=O)c1Cl", "Potency": "inconclusive [inhibitor, single point]"},
      {"smiles": "COc1cc(NC(=S)NCCO)c(OC)cc1Cl", "activity change, negative = growth inhibition": "inactive: -11.2%"},
      {"smiles": "Cn1nc(C(=O)Nc2nc(-c3ccccn3)cs2)c2ccccc2c1=O", "Potency": "active: 4.61 µM"},
      {"smiles": "CC1(C)CN(c2ccccc2)N(Cc2ccc(F)cc2)C1=O", "Potency": "active: 9.2 µM"},
      {"smiles": "COc1ccc(N(CC(=O)NCc2ccc(Cl)cc2)S(=O)(=O)c2c(C)noc2C)cc1", "Potency": "inconclusive [inhibitor, single point]"},
      {"smiles": "Cc1nn(CC(=O)N2CCCCC2)c(=O)c2cc3occc3n12", "activity change, negative = growth inhibition": "inactive: -5.97%"},
      {"smiles": "CC(C)(C)C(=O)N1CCN(c2ccc([N+](=O)[O-])cc2Cl)CC1", "Potency": "inconclusive [inhibitor, single point]"}
    ]}
  ]
}
